Assay results: the supplement of paper PMC12217912
The list shows a part of the results. Sequences were assembled here from the parent chain. Values near 0.05 are background.

B1: TEV protease; numbered along this chain (parent)
chain: MGESLFKGPRDYNPISSSICHLTNESDGHTTSLYGIGFGPFIITNKHLFRRNNGTLVVQSLHGVFKVKDTTTLQQHLVDGRDMIIIRMPKDFPPFPQKLKFREPQREERICLVTTNFQTKSMSSMVSDTSCTFPSGDGIFWKHWIQTKDGQCGSPLVSTRDGFIVGIHSASNFTNTNNYFTSVPKNFMELLTNQEAQQWVSGWRLNADSVLWGGHKVFMVKPEEPFQPVKEATQL

Variants of: B1
Assay: raw area under fraction-flipped curve 0-4 h after induction (AUC4h, not background-subtracted), DNA-recorder readout of cleavage of the substrate (dimensionless); higher = more cleavage of the substrate by the protease variant
Settings: temperature: 34 °C; time window: 0-4 h after rhamnose induction
Description: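 In vivo DNA recorder in E. coli TOP10(DE3) ΔrhaA at 34 °C. Each TEVp single-site mutant (parent TEVp 0) is paired with a single-site variant of the 7-mer TEVs (canonical ENLYFQ|S). The substrate sits between flexible linkers in a Bxb1-sfGFP-TEVs-SsrA fusion, so cleavage stabilises Bxb1 and speeds flipping of a recombination array, read by NGS. The value is the raw area under the fraction-flipped curve over 0-4 h after rhamnose induction (AUC4h), with ≥20 reads per time point. It is not background-subtracted; inactive controls average about 0.047.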
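Note: Bxb1 expression induced with 0.2% (w/v) L-rhamnose at OD600 near 0.5, cultures sampled hourly, flipped fraction per protease–substrate barcode pair counted by paired-end Illumina sequencing.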

Row | Variant | area with substrate ENLYAQS | area with substrate ENLYEQS | area with substrate ENLYGQS | area with substrate ENLYHQS | area with substrate ENLYIQS | area with substrate ENLYMQS | area with substrate ENLYNQS | area with substrate ENLYPQS | area with substrate ENLYQQS | area with substrate ENLYRQS | area with substrate ENLYSQS | area with substrate ENLYVQS | area with substrate ENLYWQS | area with substrate ENLYYQS | area with substrate ENLYCQS | area with substrate ENLYDQS | area with substrate ENLYKQS | area with substrate ENLYLQS | area with substrate ENLYTQS
1 | MGESLFKGPRDYNPISSSICHLTNESDGHTTSLYGIGFGPFIITNKHLFRRNNGTLVVQSLHGVFKVKDTTTLQQHLVVGRDMIIIRMPKDFPPFPQKLKFREPQREERICLVTTNFQTKSMSSMVSDTSCTFPSGDGIFWKHWIQTKDGQCGSPLVSTRDGFIVGIHSASNFTNTNNYFTSVPKNFMELLTNQEAQQWVSGWRLNADSVLWGGHKVFMVKPEEPFQPVKEATQL [D79V] | 0.0945 | 0.0719 | 0.0575 | 0.0654 | 0.113 | 0.0765 | 0.0711 | 0.0804 | 0.0551 | 0.0632 | 0.074 | 0.116 | 0.0799 | 0.0786 | – | – | – | – | –
2 | MGESLFKGPRDYNPISSSICHLTNESDGHTTSLYGIGFGPFIITNKHLFRRNNGTLVVQSLHGVFKVKDTTTLQQHLVDGRDMICIRMPKDFPPFPQKLKFREPQREERICLVTTNFQTKSMSSMVSDTSCTFPSGDGIFWKHWIQTKDGQCGSPLVSTRDGFIVGIHSASNFTNTNNYFTSVPKNFMELLTNQEAQQWVSGWRLNADSVLWGGHKVFMVKPEEPFQPVKEATQL [I85C] | 0.0704 | 0.0612 | 0.0621 | 0.0523 | 0.0741 | 0.0758 | 0.0584 | 0.0693 | 0.0754 | 0.0478 | 0.0721 | – | 0.065 | – | 0.0529 | 0.063 | 0.0575 | 0.0754 | –
3 | MGESLFKGPRDYNPISSSICHLTNESDGHTTSLYGIGFGPFIITNKHLFRRNNGTLVVQSLHGVFKVKDTTTLQQHLVDGRDMIIIRMEKDFPPFPQKLKFREPQREERICLVTTNFQTKSMSSMVSDTSCTFPSGDGIFWKHWIQTKDGQCGSPLVSTRDGFIVGIHSASNFTNTNNYFTSVPKNFMELLTNQEAQQWVSGWRLNADSVLWGGHKVFMVKPEEPFQPVKEATQL [P89E] | 0.0615 | 0.104 | 0.06 | 0.0569 | 0.105 | 0.0758 | 0.0701 | 0.062 | 0.0718 | 0.06 | 0.0755 | 0.101 | 0.0598 | 0.0625 | – | – | 0.0582 | 0.0942 | 0.0711
4 | MGESLFKGPRDYNPISSSICHLTNESDGHTTSLYGIGFGPFIITNKHLFRRNNGTLVVQSLHGVFKVKDTTTLQQHLVDGRDMIIIRMPKCFPPFPQKLKFREPQREERICLVTTNFQTKSMSSMVSDTSCTFPSGDGIFWKHWIQTKDGQCGSPLVSTRDGFIVGIHSASNFTNTNNYFTSVPKNFMELLTNQEAQQWVSGWRLNADSVLWGGHKVFMVKPEEPFQPVKEATQL [D91C] | 0.107 | – | 0.0246 | 0.0551 | – | 0.0951 | 0.0657 | – | 0.0934 | 0.108 | 0.0945 | 0.106 | – | – | 0.0902 | – | 0.0397 | – | –
5 | MGESLFKGPRDYNPISSSICHLTNESDGHTTSLYGIGFGPFIITNKHLFRRNNGTLVVQSLHGVFKVKDTTTLQQHLVDGRDMIIIRMPKDTPPFPQKLKFREPQREERICLVTTNFQTKSMSSMVSDTSCTFPSGDGIFWKHWIQTKDGQCGSPLVSTRDGFIVGIHSASNFTNTNNYFTSVPKNFMELLTNQEAQQWVSGWRLNADSVLWGGHKVFMVKPEEPFQPVKEATQL [F92T] | 0.0736 | – | – | 0.0632 | 0.1 | – | – | 0.0502 | 0.0627 | 0.0568 | 0.066 | 0.142 | 0.0891 | 0.069 | 0.0704 | 0.0496 | – | – | 0.0975
6 | MGESLFKGPRDYNPISSSICHLTNESDGHTTSLYGIGFGPFIITNKHLFRRNNGTLVVQSLHGVFKVKDTTTLQQHLVDGRDMIIIRMPKDFPEFPQKLKFREPQREERICLVTTNFQTKSMSSMVSDTSCTFPSGDGIFWKHWIQTKDGQCGSPLVSTRDGFIVGIHSASNFTNTNNYFTSVPKNFMELLTNQEAQQWVSGWRLNADSVLWGGHKVFMVKPEEPFQPVKEATQL [P94E] | 0.0757 | 0.0621 | 0.0658 | 0.0598 | 0.114 | 0.076 | – | 0.0878 | 0.058 | 0.043 | 0.111 | – | – | 0.0752 | – | 0.055 | 0.0565 | 0.105 | –
7 | MGESLFKGPRDYNPISSSICHLTNESDGHTTSLYGIGFGPFIITNKHLFRRNNGTLVVQSLHGVFKVKDTTTLQQHLVDGRDMIIIRMPKDFPPRPQKLKFREPQREERICLVTTNFQTKSMSSMVSDTSCTFPSGDGIFWKHWIQTKDGQCGSPLVSTRDGFIVGIHSASNFTNTNNYFTSVPKNFMELLTNQEAQQWVSGWRLNADSVLWGGHKVFMVKPEEPFQPVKEATQL [F95R] | 0.0661 | 0.0513 | 0.0626 | 0.0577 | 0.0478 | 0.0519 | 0.0388 | 0.0515 | – | 0.0609 | – | 0.0685 | 0.0537 | – | 0.0606 | 0.061 | – | 0.0654 | –
8 | MGESLFKGPRDYNPISSSICHLTNESDGHTTSLYGIGFGPFIITNKHLFRRNNGTLVVQSLHGVFKVKDTTTLQQHLVDGRDMIIIRMPKDFPPFPQQLKFREPQREERICLVTTNFQTKSMSSMVSDTSCTFPSGDGIFWKHWIQTKDGQCGSPLVSTRDGFIVGIHSASNFTNTNNYFTSVPKNFMELLTNQEAQQWVSGWRLNADSVLWGGHKVFMVKPEEPFQPVKEATQL [K98Q] | 0.0827 | 0.0641 | 0.0425 | 0.0525 | – | 0.081 | – | 0.0741 | 0.0443 | – | – | 0.138 | – | – | 0.105 | 0.0657 | 0.0669 | – | –
9 | MGESLFKGPRDYNPISSSICHLTNESDGHTTSLYGIGFGPFIITNKHLFRRNNGTLVVQSLHGVFKVKDTTTLQQHLVDGRDMIIIRMPKDFPPFPQKLTFREPQREERICLVTTNFQTKSMSSMVSDTSCTFPSGDGIFWKHWIQTKDGQCGSPLVSTRDGFIVGIHSASNFTNTNNYFTSVPKNFMELLTNQEAQQWVSGWRLNADSVLWGGHKVFMVKPEEPFQPVKEATQL [K100T] | 0.0713 | 0.067 | 0.0715 | 0.0784 | – | 0.0891 | 0.0327 | 0.072 | 0.071 | – | 0.0887 | 0.131 | – | 0.0664 | 0.0776 | – | 0.0648 | – | –
